According to article PMC6220254:
Results are given in words; binding and its absence hold for the method and conditions named. In cells and extracts the contact can be indirect. Some entries that bind do so weakly or less than the wild type.

Chains of the proteins cited; added tags and fusions are not shown. Lines headed by an entry give the natural chain unless they say otherwise; changes in a name come on top.
UniProt O88522: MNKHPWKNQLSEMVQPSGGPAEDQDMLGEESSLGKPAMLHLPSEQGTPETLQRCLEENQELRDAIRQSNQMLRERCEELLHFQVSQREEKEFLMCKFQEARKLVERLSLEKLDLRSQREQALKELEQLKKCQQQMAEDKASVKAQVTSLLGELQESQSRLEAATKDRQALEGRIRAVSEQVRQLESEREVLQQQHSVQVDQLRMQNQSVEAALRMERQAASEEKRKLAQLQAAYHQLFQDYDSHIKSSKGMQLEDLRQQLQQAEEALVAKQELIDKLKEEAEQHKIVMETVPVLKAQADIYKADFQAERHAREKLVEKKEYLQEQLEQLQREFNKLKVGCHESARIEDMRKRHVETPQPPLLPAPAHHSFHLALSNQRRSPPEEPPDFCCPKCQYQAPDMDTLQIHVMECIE
UniProt Q60989: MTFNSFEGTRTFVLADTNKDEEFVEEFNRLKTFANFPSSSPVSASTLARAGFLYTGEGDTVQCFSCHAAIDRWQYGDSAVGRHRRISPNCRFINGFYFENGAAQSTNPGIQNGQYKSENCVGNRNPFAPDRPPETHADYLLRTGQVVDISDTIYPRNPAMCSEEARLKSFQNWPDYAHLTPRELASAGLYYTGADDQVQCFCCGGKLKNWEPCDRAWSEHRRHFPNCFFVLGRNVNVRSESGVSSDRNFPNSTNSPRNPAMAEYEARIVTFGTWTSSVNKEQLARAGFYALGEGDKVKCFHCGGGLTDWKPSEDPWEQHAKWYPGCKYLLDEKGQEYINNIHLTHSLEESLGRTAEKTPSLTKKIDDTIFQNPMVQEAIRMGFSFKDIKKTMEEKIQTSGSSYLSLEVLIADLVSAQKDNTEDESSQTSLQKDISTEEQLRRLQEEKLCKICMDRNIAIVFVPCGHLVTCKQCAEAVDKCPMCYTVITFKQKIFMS
UniProt Q60680: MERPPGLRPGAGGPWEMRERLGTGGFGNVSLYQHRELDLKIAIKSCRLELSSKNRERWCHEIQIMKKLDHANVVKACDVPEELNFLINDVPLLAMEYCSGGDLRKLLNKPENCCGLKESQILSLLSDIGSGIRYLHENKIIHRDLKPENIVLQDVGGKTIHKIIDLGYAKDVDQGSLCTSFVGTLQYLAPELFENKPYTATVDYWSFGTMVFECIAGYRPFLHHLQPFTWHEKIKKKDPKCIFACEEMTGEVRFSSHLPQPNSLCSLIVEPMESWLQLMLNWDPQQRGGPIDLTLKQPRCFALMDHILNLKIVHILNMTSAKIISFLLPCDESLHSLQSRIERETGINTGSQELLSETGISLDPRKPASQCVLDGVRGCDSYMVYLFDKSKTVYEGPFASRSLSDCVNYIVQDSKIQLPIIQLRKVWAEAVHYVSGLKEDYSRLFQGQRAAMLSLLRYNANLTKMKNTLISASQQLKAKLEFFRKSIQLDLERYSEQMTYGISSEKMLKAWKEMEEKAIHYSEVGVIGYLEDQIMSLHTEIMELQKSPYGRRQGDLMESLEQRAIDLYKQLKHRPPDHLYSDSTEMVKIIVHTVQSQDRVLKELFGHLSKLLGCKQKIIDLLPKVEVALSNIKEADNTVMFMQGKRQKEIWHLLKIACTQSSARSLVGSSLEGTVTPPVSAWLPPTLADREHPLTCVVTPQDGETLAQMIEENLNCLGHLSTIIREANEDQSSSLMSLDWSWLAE

B1: NOD2 (receptor, UniProt Q8K3Z0 1-1020)
chain: MRSSCCDMCSQEEFQAQRSQLVALLISGSLEGFESILDWLLSWDVLSREDYEGLSLPGQPLSHSARRLLDTVWNKGVWGCQKLLEAVQEAQANSHTFELYGSWDTHSLHPTRDLQSHRPAIVRRLYNHVEAMLELAREGGFLSQYECEEIRLPIFTSSQRARRLLDLAAVKANGLAAFLLQHVRELPAPLPLPYEAAECQKFISKLRTMVLTQSRFLSTYDGSENLCLEDIYTENILELQTEVGTAGALQKSPAILGLEDLFDTHGHLNRDADTILVVGEAGSGKSTLLQRLHLLWATGRSFQEFLFIFPFSCRQLQCVAKPLSLRTLLFEHCCWPDVAQDDVFQFLLDHPDRVLLTFDGLDEFKFRFTDRERHCSPIDPTSVQTLLFNLLQGNLLKNACKVLTSRPDAVSALLRKFVRTELQLKGFSEEGIQLYLRKHHREPGVADRLIQLIQATSALHGLCHLPVFSWMVSRCHRELLLQNRGFPTTSTDMYLLILQHFLLHASPPDSSPLGLGPGLLQSRLSTLLHLGHLALRGLAMSCYVFSAQQLQAAQVDSDDISLGFLVRAQSSVPGSKAPLEFLHITFQCFFAAFYLAVSADTSVASLKHLFSCGRLGSSLLGRLLPNLCIQGSRVKKGSEAALLQKAEPHNLQITAAFLAGLLSQQHRDLLAACQVSERVLLQRQARARSCLAHSLREHFHSIPPAVPGETKSMHAMPGFIWLIRSLYEMQEEQLAQEAVRRLDIGHLKLTFCRVGPAECAALAFVLQHLQRPVALQLDYNSVGDVGVEQLRPCLGVCTALYLRDNNISDRGARTLVECALRCEQLQKLALFNNKLTDACACSMAKLLAHKQNFLSLRVGNNHITAAGAEVLAQGLKSNTSLKFLGFWGNSVGDKGTQALAEVVADHQNLKWLSLVGNNIGSMGAEALALMLEKNKSLEELCLEENHICDEGVYSLAEGLKRNSTLKFLKLSNNGITYRGAEALLQALSRNSAILEVWLRGNTFSLEEIQTLSSRDARLLL
B2: CYLD (enzyme, UniProt Q80TQ2 1-952)
chain: MSSGLWSQEKVTSPYWEERIFYLLLQECSVTDKQTQKLLKVPKGSIGQYIQDRSVGHSRVPSTKGKKNQIGLKILEQPHAVLFVDEKDVVEINEKFTELLLAITNCEERLSLFRNRLRLSKGLQVDVGSPVKVQLRSGEEKFPGVVRFRGPLLAERTVSGIFFGVELLEEGRGQGFTDGVYQGKQLFQCDEDCGVFVALDKLELIEDDDNGLESDFAGPGDTMQVEPPPLEINSRVSLKVGESTESGTVIFCDVLPGKESLGYFVGVDMDNPIGNWDGRFDGVQLCSFASVESTILLHINDIIPDSVTQERRPPKLAFMSRGVGDKGSSSHNKPKVTGSTSDPGSRNRSELFYTLNGSSVDSQQSKSKNPWYIDEVAEDPAKSLTEMSSDFGHSSPPPQPPSMNSLSSENRFHSLPFSLTKMPNTNGSMAHSPLSLSVQSVMGELNSTPVQESPPLPISSGNAHGLEVGSLAEVKENPPFYGVIRWIGQPPGLSDVLAGLELEDECAGCTDGTFRGTRYFTCALKKALFVKLKSCRPDSRFASLQPVSNQIERCNSLAFGGYLSEVVEENTPPKMEKEGLEIMIGKKKGIQGHYNSCYLDSTLFCLFAFSSALDTVLLRPKEKNDIEYYSETQELLRTEIVNPLRIYGYVCATKIMKLRKILEKVEAASGFTSEEKDPEEFLNILFHDILRVEPLLKIRSAGQKVQDCNFYQIFMEKNEKVGVPTIQQLLEWSFINSNLKFAEAPSCLIIQMPRFGKDFKLFKKIFPSLELNITDLLEDTPRQCRICGGLAMYECRECYDDPDISAGKIKQFCKTCSTQVHLHPRRLNHSYHPVSLPKDLPDWDWRHGCIPCQKMELFAVLCIETSHYVAFVKYGKDDSAWLFFDSMADRDGGQNGFNIPQVTPCPEVGEYLKMSLEDLHSLDSRRIQGCARRLLCDAYMCMYQSPTMSLYK
B3: A20 (enzyme, UniProt Q60769 1-775)
chain: MAEQLLPQALYLSNMRKAVKIRERTPEDIFKPTNGIIYHFKTMHRYTLEMFRTCQFCPQFREIIHKALIDRSVQASLESQKKLNWCREVRKLVALKTNGDGNCLMHAACQYMWGVQDTDLVLRKALCSTLKETDTRNFKFRWQLESLKSQEFVETGLCYDTRNWNDEWDNLVKMASADTPAARSGLQYNSLEEIHIFVLSNILRRPIIVISDKMLRSLESGSNFAPLKVGGIYLPLHWPAQECYRYPIVLGYDSQHFVPLVTLKDSGPELRAVPLVNRDRGRFEDLKVHFLTDPENEMKEKLLKEYLIVMEIPVQGWDHGTTHLINAAKLDEANLPKEINLVDDYFELVQHEYKKWQENSDQARRAAHAQNPLEPSTPQLSLMDIKCETPNCPFFMSVNTQPLCHECSERRQKNQSKLPKLNSKLGPEGLPGVGLGSSNWSPEETAGGPHSAPPTAPSLFLFSETTAMKCRSPGCPFTLNVQHNGFCERCHARQINASHTADPGKCQACLQDVTRTFNGICSTCFKRTTAEPSSSLTSSIPASCHQRSKSDPSQLIQSLTPHSCHRTGNVSPSGCLSQAARTPGDRAGTSKCRKAGCMYFGTPENKGFCTLCFIEYRENKQSVTASEKAGSPAPRFQNNVPCLGRECGTLGSTMFEGYCQKCFIEAQNQRFHEARRTEEQLRSSQHRDMPRTTQVASRLKCARASCKNILACRSEELCMECQHLSQRVGSVAHRGEPTPEEPPKQRCRAPACDHFGNAKCNGYCNECYQFKQMYG
B4: TAK1 (enzyme, UniProt Q62073 1-579)
chain: MSTASAASSSSSSSASEMIEAPSQVLNFEEIDYKEIEVEEVVGRGAFGVVCKAKWRAKDVAIKQIESESERKAFIVELRQLSRVNHPNIVKLYGACLNPVCLVMEYAEGGSLYNVLHGAEPLPYYTAAHAMSWCLQCSQGVAYLHSMQPKALIHRDLKPPNLLLVAGGTVLKICDFGTACDIQTHMTNNKGSAAWMAPEVFEGSNYSEKCDVFSWGIILWEVITRRKPFDEIGGPAFRIMWAVHNGTRPPLIKNLPKPIESLMTRCWSKDPSQRPSMEEIVKIMTHLMRYFPGADEPLQYPCQYSDEGQSNSATSTGSFMDIASTNTSNKSDTNMEQVPATNDTIKRLESKLLKNQAKQQSESGRLSLGASRGSSVESLPPTSEGKRMSADMSEIEARIVATAGNGQPRRRSIQDLTVTGTEPGQVSSRSSSPSVRMITTSGPTSEKPARSHPWTPDDSTDTNGSDNSIPMAYLTLDHQLQPLAPCPNSKESMAVFEQHCKMAQEYMKVQTEIALLLQRKQELVAELDQDEKDQQNTSRLVQEHKKLLDENKSLSTYYQQCKKQLEVIRSQQQKRQGTS
B5: TAB2 (protein, UniProt Q99K90 1-693)
chain: MAQGSHQIDFQVLHDLRQKFPEVPEVVVSRCMLQNNNNLDACCAVLSQESTRYLYGEGDLNFSDESGISGLRNHMTSLNLDLQSQNVYHHGREGSRVNGSRTLTHSVSDGQLHGGQSNNELFQQEPQTAPAQVPQGFNVFGMPSTSGASNSTPHLGFHLGSKGTSNLSQQTPRFNPIMVTLAPNIQTGRSTPTSLHIHGVPPPVLNSPQGNSIYIRPYITTPSGTARQTQQHSGWVSQFNPMNPQQAYQPSQPGPWTTYPASNPLPHTSTQQPNQQGHQTSHVYMPISSPTTPQPPTIHSSGSSQSSAHSQYNIQNISTGPRKNQIEIKLEPPQRNSSSKLRSSGPRTASTSSLVNSQTLNRNQPTVYIAASPPNTDEMISRSQPKVYISANATAGDEQGMRNQPTLFISTNSGPSAASRNMSGQVSMGPAFIHHHPPKSRVLGGNSATSPRVVVTQPNTKYTFKITVSPNKPPAVSPGVVSPTFELTNLLNHPDHYVETENIQHLTDPALAHVDRISEARKLSMGSDDAAYTQALLVHQKARMERLQRELEMQKKKLDKLKSEVNEMENNLTRRRLKRSNSISQIPSLEEMQQLRSCNRQLQIDIDCLTKEIDLFQARGPHFNPSAIHNFYDNIGFVGPVPPKPKDQRSTIKAPKTQDAEDEEGAQWNCTACTFLNHPALIRCEQCEMPRHF
B6: TAB3 (protein, UniProt Q571K4 1-716)
chain: MAQNSPQLDIQVLHDLRQRFPEIPEGVVSQCMLQNNNNLEACCRALSQESSKYLYMEYHSPEDNRMNRNRLLHINLGIHSPSSYHPGDGAHLNGGRTLVHSSSDGHIDPQHTAGKQLICLVQEPHSAPAVVAATPNYNPFFMNEQNRSAATPPSQPPQQPSSMQTGMNPSAMQGPSPPPPPPSYMHIPRYSTNPITVTVSQNLPSGQTVPRALQILPQIPSNLYGSPGSIFIRQTSQSSSGRQTPQNAPWQSSPQGPVPHYSQRPLPVYPHQQNYQPSQYSPKQQQIPQSVYHSPPPSQCPSPFSSPQHQVQPPQLGHPSSHVFMPPSPSTTPPHLYQQGPPSYQKPGSHSVAYLPYTASSLPKGSMKKIEITVEPSQRPGTAITRSPSPISNQPSPRNQHSLYTATTPPSSSPSRGISSQPKPPFSVNPVYITYTQPTGPSCAPSPSPRVIPNPTTVFKITVGRATTENLLNLVDQEERSAAPEPIQPISVIPGSGGEKGNHKYQRSSSSGSDDYAYTQALLLHQRARMERLAKQLKLEKEELERLKAEVNSMEHDLMQRRLRRVSCTTAIPTPEEMTRLRSTNRQLQINVDCTLKEVDLLQSRGNFDPKAINNFYDHIEPGPVVPPKPSKKDSSDSCAIERKARRISVTSKAPVDIHDAQAAAADEHLSICKQSARTQPRDEDYEGAPWNCDSCTFLNHPALNRCEQCEMPRYT

target: T1, myb-like SWIRM and MPN domains 1 (MYSM1) (mouse (endogenous in BMDMs)) (UniProt Q69Z66); assay: co-IP; anti-MYSM1 immunoprecipitation (Fig. 4b; Fig. 2c: HOIP, MYSM1 or RIP2 immunoprecipitates) from cytoplasmic fractions of BMDMs stimulated with L18-MDP; immunoblot
T1 sequence: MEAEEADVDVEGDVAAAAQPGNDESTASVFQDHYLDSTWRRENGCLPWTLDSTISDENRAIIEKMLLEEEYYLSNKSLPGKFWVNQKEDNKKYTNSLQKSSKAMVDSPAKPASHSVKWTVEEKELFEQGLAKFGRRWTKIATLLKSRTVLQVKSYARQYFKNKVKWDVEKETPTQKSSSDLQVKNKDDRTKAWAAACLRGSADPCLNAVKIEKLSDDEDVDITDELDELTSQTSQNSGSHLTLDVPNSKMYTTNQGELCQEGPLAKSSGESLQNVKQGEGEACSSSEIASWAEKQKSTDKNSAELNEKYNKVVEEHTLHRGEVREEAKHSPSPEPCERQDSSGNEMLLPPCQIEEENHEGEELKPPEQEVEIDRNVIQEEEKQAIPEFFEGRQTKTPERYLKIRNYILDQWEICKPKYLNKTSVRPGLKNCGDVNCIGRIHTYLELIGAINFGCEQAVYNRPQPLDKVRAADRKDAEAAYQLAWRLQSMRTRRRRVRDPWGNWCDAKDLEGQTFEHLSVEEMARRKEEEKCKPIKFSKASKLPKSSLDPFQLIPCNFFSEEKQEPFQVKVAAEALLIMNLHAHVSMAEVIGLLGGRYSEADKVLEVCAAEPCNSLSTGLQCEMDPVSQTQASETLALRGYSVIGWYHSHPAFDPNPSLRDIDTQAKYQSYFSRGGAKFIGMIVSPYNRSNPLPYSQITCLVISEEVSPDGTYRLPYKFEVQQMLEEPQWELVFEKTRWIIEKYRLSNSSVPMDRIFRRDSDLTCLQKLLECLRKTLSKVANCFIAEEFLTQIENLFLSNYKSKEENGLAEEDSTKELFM

How did the binding turn out when NEMO (from UniProt O88522 1-412) was run?
The binding was “no binding”.

How did the binding turn out when “XIAP (from UniProt Q60989 1-496) (enzyme)” was run?
The binding was “binds”.

“IKK complex (NEMO, IKKα/β) (from UniProt Q60680 1-745; O88351 1-757; O88522 1-412)” was tested. Which binding did it give?
The binding was “no binding”.

For B1, which binding is on record?
Its binding is “binds”.

B2 was tested. Which binding did it give?
The binding was “no binding”.

With B3 as the molecule, how does the binding read?
The binding was “no binding”.

Which binding does the source give for B4 here?
Its binding is “no binding”.

B5 was tested. Which binding did it give?
Its binding is “no binding”.

B6 was tested. Which binding did it give?
Its binding is “no binding”.
